Data reported in PubChem BioAssay AID1671193 (National Center for Advancing Translational Sciences (NCATS), 2021).
Out of some 150,000 compounds screened, about 180 (0.12%) were called active. This list was built around the results that the source calls inconclusive (neither active nor inactive); the mix of calls is not that of the screen. Calls follow the shape of the dose curve; as a rule, active = well fitted cell-killing curve with a large enough effect; inconclusive = small, poorly fitted or top-dose-only effect, or effect the other way; inactive = flat fitted curve, though single readings scatter. Potencies of inconclusive entries are doubtful fits and often do not repeat.

assay: GF-AFC viability counterscreen for inhibitors of alpha-synuclein gene (SNCA) expression; conditions: HEK-293-SNCA-luc viability, GF-AFC fluorescence, 24 h; series mostly up to 57.1 µM; also: nearly all actives have a fitted effect of over 30% in size
In short: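 HEK-293-SNCA-luc cells (1500/well) plated 24 h, then exposed 24 h to a dilution series; GF-AFC added 30 min at 37C, fluorescence 405/540 nm; normalised to medium-only and DMSO wells, Hill fit.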
Potency is read from the fitted curve at half-maximal effect; tags tell the direction and shape of the fitted curve.

SMILES	Potency
CCOc1ccc(N2CC(c3nc4ccccc4n3CCCOc3ccccc3OC)CC2=O)cc1 (stereo unspecified)	inconclusive: 39.8 µM [cytotoxic, single point]
O=C(c1ccc2[nH]ccc2c1)N1CCC(n2cc(-c3nc(-c4ccccc4)no3)nn2)C1 (stereo unspecified)	inconclusive: 35.5 µM [cytotoxic, single point]
Cc1cc(C)nc(NS(=O)(=O)c2ccc(NC(=O)c3ccccc3O)cc2)n1	inconclusive: 15.8 µM [rising, partial curve, poor fit]
CS(=O)(=O)N[C@H]1CO[C@H]2[C@@H]1OC[C@@H]2Nc1nccc(-c2cccc(F)c2)n1	inactive
CN1C[C@@H](NC(=O)c2ccc3c(c2)OCO3)C[C@H]1c1nc(-c2ccc3ccccc3c2)no1	inconclusive: 31.6 µM [cytotoxic, single point]
O=C(Cc1ccc(F)cc1)NC1CCN(c2cc(-c3ccccc3)[nH]n2)C1 (stereo unspecified)	inactive
Cc1ccc(N2C(=O)c3n[nH]c(C)c3C2c2ccc(Cl)cc2)cc1 (stereo unspecified)	inconclusive: 22.4 µM [cytotoxic, partial curve, poor fit]
COc1ccc(-c2nc3ccccc3n3c(-c4cccc(C)c4)c4c(=O)n(C)c(=O)n(C)c4c23)cc1OC	inconclusive: 31.6 µM [cytotoxic, single point]
CC1CCc2c(cc(-c3ccccc3)n2-c2ccc(C(=O)NC(C)C)cc2)C1 (stereo unspecified)	inconclusive: 39.8 µM [cytotoxic, single point]
Cc1ccn2c(C(=O)N3CCn4nc(CCC(=O)NC(C)C)cc4C3)nnc2n1	inactive
CCCNS(=O)(=O)c1cc(-c2nn3c(C)nnc3c3ccccc23)ccc1C	inconclusive: 28.2 µM [cytotoxic, partial curve, poor fit]
O=[N+]([O-])c1ccc2c(c1)S(=O)(=O)C=C2	inconclusive: 6.31 µM [cytotoxic, full curve, poor fit]
COc1ccc(C(CC(=O)N2CCC(Cc3ccccc3)CC2)c2c[nH]c3ccccc23)cc1OC (stereo unspecified)	inconclusive: 28.2 µM [cytotoxic, single point]
CN1CCCN(C(=O)CC2CCCC2)c2ccccc21	inactive
COc1cccc(-c2ccc(C(=O)O)cc2)c1	inactive
CC(C)NC(=O)c1ccc2nc(-c3ccncc3)oc2c1	inactive
c1cnc2nc(C3CCN(CC4CCCCC4)C3)[nH]c2c1 (stereo unspecified)	inactive
O=C(CCC[C@H]1NC[C@@H]2C[C@H]1CN(Cc1ccccc1)C2)NCc1ccc(N2CCOCC2)cc1	inactive
N#CC1(c2cccc(C(=O)Nc3cc(Oc4ccc5nc(NC(=O)C6CC6)sc5n4)ccc3F)c2Cl)CC1	inconclusive: 0.857 µM [cytotoxic, full curve, poor fit]
Cc1ccccc1CCNC(=O)c1ccc2c(c1)nc1n2CCOC1	inactive
CCCc1nc2nc(C)c(NS(=O)(=O)c3ccc(CC(C)C)cc3)c(=O)n2[nH]1	inconclusive: 8.91 µM [rising, partial curve, poor fit]

SMILES	Potency
CCOC(=O)c1ccc(N2C(=O)c3[nH]nc(-c4ccc(C)cc4)c3C2c2cccs2)cc1 (stereo unspecified)	inconclusive: 10 µM [cytotoxic, partial curve, poor fit]
Cc1ccc(NC(=O)CCS(=O)(=O)c2ccc(Br)s2)c(Br)c1	inconclusive: 12.6 µM [rising, partial curve, poor fit]
Cc1nn(C)cc1CN(C)C(=O)c1cc(-c2ccccc2)nc2ccc(Br)cc12	inconclusive: 39.8 µM [cytotoxic, single point]
Cc1ccccc1CSc1cn(CC(=O)N2CCCCC2)c2ccccc12	inconclusive: 22.4 µM [cytotoxic, single point]
COc1ccc(-c2nc(C(C)C)nc3c2CCN(C(=O)c2cccc(OC)c2)CC3)cc1	inconclusive: 15.8 µM [cytotoxic, partial curve, poor fit]
COc1ccc(CN2C[C@@H]3[C@H](C2)N(CC(C)C)C(=O)C(C)(C)[S+]3(=O)[O-])cc1O	inactive
CCOC(=O)C1=C(CS(=O)(=O)c2ccc(F)c(C)c2)NC(=O)NC1c1ccccc1OC (stereo unspecified)	inconclusive: 17.8 µM [cytotoxic, single point]
COc1ccc(CNc2ncnc3ccc(-c4cccc(NS(C)(=O)=O)c4)cc23)c(OC)c1	inconclusive: 1 µM [cytotoxic, full curve, poor fit]
COc1ccc(C(=O)N[C@@H]2CCC[C@@H]2C(=O)NCc2cccc(OC)c2)cc1	inconclusive: 25.1 µM [cytotoxic, single point]
CC(C)NC(=O)N1CCNc2cnc(Nc3cccc(C(F)(F)F)c3)nc2C1	inconclusive: 25.1 µM [cytotoxic, partial curve]
COc1ccc2[nH]c(C[C@@H]3C[C@@H](C(C)C)[C@H](CNC(C)=O)C=C3C)nc2n1	inactive
Cc1ccccc1-c1cnc2[nH]cc(CC(=O)N3CCCC3)c2c1	inactive
COc1ccc(-c2cc(-c3ccncc3)c3cncn3c2)cc1	inactive
O=C(NCc1ccc(Cl)cc1)c1cc2n(n1)CC(c1ccc3c(c1)OCO3)OC2 (stereo unspecified)	inconclusive: 39.8 µM [cytotoxic, single point]
COc1ccccc1-c1cnc(Nc2cccnc2)c2c1CCO2	inactive
CC1=C[C@@H](CNC(C)C)[C@H](C(C)C)C[C@H]1Cc1nnc(-c2ccc(N(C)C)cc2)o1	inconclusive: 28.2 µM [cytotoxic, partial curve]
Cc1cc(N)c2cc(NC(=O)Nc3ccc4nc(C)cc(N)c4c3)ccc2n1	inconclusive: 12.6 µM [rising, partial curve, poor fit]
CCCSCCCNC(=O)C1CCN(c2nc3ccccc3nc2C(F)(F)F)CC1	inactive
O=S(=O)(NCCc1csc2nc(-c3ccccc3)nn12)c1cc(F)ccc1F	inconclusive: 11.2 µM [cytotoxic, partial curve, poor fit]
CC[C@]1(O)C[C@H]2CN(CCC3=c4ccccc4=N[C]3[C@@](C(=O)OC)(c3cc4c(cc3OC)N(C)[C@H]3[C@@](O)(C(N)=O)[C@H](O)[C@]5(CC)C=CCN6CC[C@]43[C@@H]65)C2)C1	inconclusive: 1.71 µM [cytotoxic, full curve]
